{
  "source": "the supplement of paper PMC8728848",
  "binders": {"B1": {"name": "HFR-1 (Triticum aestivum) (protein)", "chain": "MSPQSFTLETTTTTPAAKGSDPSYFQSAPACHEMIQHKELLLHLYAYQNVQKTPDANQAVIVESKRPECFGILAANDWTVYDGPAHNANLVAHAQGLHLGASMAKENWFICFNMVFVNQRFTGSSFKVMGDFQGTAHNGEWAIVGGTGEFAYAQGVIAFKKTQQSERNARMELHVRAMCLSFLRPLLSLGDGSAVAKIGPWGKMSGELLDIPSTPQRLERITIRHGVVIDSLAFSFIDKAGEPYNVGPWGGRRGDNKDTIELAPSEIVTEVSGTVGIFAEDNVEYNAIASLTITTNHRPYGPFGETQSTPFSVPVQDNNNIVGFFACAGKYVEALGVYVRSPVST"}},
  "assay_in_all_cases": "glycan array binding signal (z-score within array); higher = stronger binding",
  "conditions_in_all_cases": "glycan notation: IUPAC condensed, linker removed",
  "key": {"Gal3S(b1-4)GlcNAc6S": {"molecular_target": "Gal3S(b1-4)GlcNAc6S", "how_it_was_run": "(§1)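 The binding signal is a Z-score computed within each array and averaged over linkers. Arrays of the same protein sequence at different concentrations or buffers were also averaged together. Data originate from 3228 arrays in the Consortium for Functional Glycomics database, kept only where the protein sequence was available.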"}, "[1]": {"molecular_target": "Gal3S(b1-4)[Fuc(a1-3)]Glc", "how_it_was_run": "as §1"}, "Gal3S4S(b1-4)GlcNAc": {"molecular_target": "Gal3S4S(b1-4)GlcNAc", "how_it_was_run": "as §1"}, "Gal3S6S(b1-4)GlcNAc": {"molecular_target": "Gal3S6S(b1-4)GlcNAc", "how_it_was_run": "as §1"}, "Gal3S6S(b1-4)GlcNAc6S": {"molecular_target": "Gal3S6S(b1-4)GlcNAc6S", "how_it_was_run": "as §1"}, "Gal4S(b1-4)GlcNAc": {"molecular_target": "Gal4S(b1-4)GlcNAc", "how_it_was_run": "as §1"}, "Gal4S6S(b1-4)GlcNAc": {"molecular_target": "Gal4S6S(b1-4)GlcNAc", "how_it_was_run": "as §1"}, "Gal6S(b1-4)Glc": {"molecular_target": "Gal6S(b1-4)Glc", "how_it_was_run": "as §1"}, "Gal6S(b1-4)Glc6S": {"molecular_target": "Gal6S(b1-4)Glc6S", "how_it_was_run": "as §1"}, "Gal6S(b1-4)GlcNAc": {"molecular_target": "Gal6S(b1-4)GlcNAc", "how_it_was_run": "as §1"}, "Gal6S(b1-4)GlcNAc6S": {"molecular_target": "Gal6S(b1-4)GlcNAc6S", "how_it_was_run": "as §1"}, "GalNAc(a1-3)Gal": {"molecular_target": "GalNAc(a1-3)Gal", "how_it_was_run": "as §1"}, "GalNAc(a1-3)GalNAc": {"molecular_target": "GalNAc(a1-3)GalNAc", "how_it_was_run": "as §1"}, "GalNAc(b1-3)Gal": {"molecular_target": "GalNAc(b1-3)Gal", "how_it_was_run": "as §1"}, "[2]": {"molecular_target": "GalNAc(b1-3)Gal(a1-4)Gal(b1-4)GlcNAc", "how_it_was_run": "as §1"}, "GalNAc(b1-3)GalNAc": {"molecular_target": "GalNAc(b1-3)GalNAc", "how_it_was_run": "as §1"}, "GalNAc(b1-4)GlcNAc": {"molecular_target": "GalNAc(b1-4)GlcNAc", "how_it_was_run": "as §1"}, "Glc(a1-4)Glc": {"molecular_target": "Glc(a1-4)Glc", "how_it_was_run": "as §1"}, "Glc(a1-6)Glc(a1-6)Glc": {"molecular_target": "Glc(a1-6)Glc(a1-6)Glc", "how_it_was_run": "as §1"}, "Glc(b1-4)Glc": {"molecular_target": "Glc(b1-4)Glc", "how_it_was_run": "as §1"}, "Glc(b1-6)Glc": {"molecular_target": "Glc(b1-6)Glc", "how_it_was_run": "as §1"}, "GlcA(b1-3)Gal": {"molecular_target": "GlcA(b1-3)Gal", "how_it_was_run": "as §1"}, "GlcA(b1-3)GlcNAc": {"molecular_target": "GlcA(b1-3)GlcNAc", "how_it_was_run": "as §1"}, "GlcA(b1-6)Gal": {"molecular_target": "GlcA(b1-6)Gal", "how_it_was_run": "as §1"}, "[3]": {"molecular_target": "GlcNAc(a1-3)Gal(b1-4)GlcNAc", "how_it_was_run": "as §1"}, "[4]": {"molecular_target": "GlcNAc(a1-6)Gal(b1-4)GlcNAc", "how_it_was_run": "as §1"}, "[5]": {"molecular_target": "GlcNAc(b1-2)Gal(b1-3)GalNAc", "how_it_was_run": "as §1"}, "[6]": {"molecular_target": "GlcNAc(b1-2)Man(a1-3)[GlcNAc(b1-2)Man(a1-6)]Man(b1-4)GlcNAc(b1-4)GlcNAc", "how_it_was_run": "as §1"}, "GlcNAc(b1-3)Gal": {"molecular_target": "GlcNAc(b1-3)Gal", "how_it_was_run": "as §1"}, "[7]": {"molecular_target": "GlcNAc(b1-3)Gal(b1-3)GalNAc", "how_it_was_run": "as §1"}, "GlcNAc(b1-3)Gal(b1-4)Glc": {"molecular_target": "GlcNAc(b1-3)Gal(b1-4)Glc", "how_it_was_run": "as §1"}, "[8]": {"molecular_target": "GlcNAc(b1-3)Gal(b1-4)GlcNAc", "how_it_was_run": "as §1"}, "[9]": {"molecular_target": "GlcNAc(b1-3)Gal(b1-4)GlcNAc(b1-3)Gal(b1-4)GlcNAc", "how_it_was_run": "as §1"}, "GlcNAc(b1-3)GalNAc": {"molecular_target": "GlcNAc(b1-3)GalNAc", "how_it_was_run": "as §1"}, "GlcNAc(b1-3)Man": {"molecular_target": "GlcNAc(b1-3)Man", "how_it_was_run": "as §1"}, "[10]": {"molecular_target": "GlcNAc(b1-3)[GlcNAc(b1-4)][GlcNAc(b1-6)]GlcNAc", "how_it_was_run": "as §1"}, "[11]": {"molecular_target": "GlcNAc(b1-3)[GlcNAc(b1-6)]Gal(b1-4)GlcNAc", "how_it_was_run": "as §1"}},
  "note": "The list shows a part of the results.",
  "data": [
    {"binder": "B1", "values": [
      {"measurement": "glycan array binding signal (z-score)", "setting": "Gal3S(b1-4)GlcNAc6S", "result": -0.158},
      {"measurement": "glycan array binding signal (z-score)", "setting": "[1]", "result": -0.208},
      {"measurement": "glycan array binding signal (z-score)", "setting": "Gal3S4S(b1-4)GlcNAc", "result": -0.193},
      {"measurement": "glycan array binding signal (z-score)", "setting": "Gal3S6S(b1-4)GlcNAc", "result": -0.179},
      {"measurement": "glycan array binding signal (z-score)", "setting": "Gal3S6S(b1-4)GlcNAc6S", "result": -0.18},
      {"measurement": "glycan array binding signal (z-score)", "setting": "Gal4S(b1-4)GlcNAc", "result": -0.201},
      {"measurement": "glycan array binding signal (z-score)", "setting": "Gal4S6S(b1-4)GlcNAc", "result": -0.189},
      {"measurement": "glycan array binding signal (z-score)", "setting": "Gal6S(b1-4)Glc", "result": -0.151},
      {"measurement": "glycan array binding signal (z-score)", "setting": "Gal6S(b1-4)Glc6S", "result": -0.151},
      {"measurement": "glycan array binding signal (z-score)", "setting": "Gal6S(b1-4)GlcNAc", "result": -0.201},
      {"measurement": "glycan array binding signal (z-score)", "setting": "Gal6S(b1-4)GlcNAc6S", "result": -0.151},
      {"measurement": "glycan array binding signal (z-score)", "setting": "GalNAc(a1-3)Gal", "result": -0.051},
      {"measurement": "glycan array binding signal (z-score)", "setting": "GalNAc(a1-3)GalNAc", "result": -0.194},
      {"measurement": "glycan array binding signal (z-score)", "setting": "GalNAc(b1-3)Gal", "result": -0.024},
      {"measurement": "glycan array binding signal (z-score)", "setting": "[2]", "result": -0.153},
      {"measurement": "glycan array binding signal (z-score)", "setting": "GalNAc(b1-3)GalNAc", "result": -0.213},
      {"measurement": "glycan array binding signal (z-score)", "setting": "GalNAc(b1-4)GlcNAc", "result": -0.002},
      {"measurement": "glycan array binding signal (z-score)", "setting": "Glc(a1-4)Glc", "result": -0.068},
      {"measurement": "glycan array binding signal (z-score)", "setting": "Glc(a1-6)Glc(a1-6)Glc", "result": 0.404},
      {"measurement": "glycan array binding signal (z-score)", "setting": "Glc(b1-4)Glc", "result": -0.108},
      {"measurement": "glycan array binding signal (z-score)", "setting": "Glc(b1-6)Glc", "result": 0.094},
      {"measurement": "glycan array binding signal (z-score)", "setting": "GlcA(b1-3)Gal", "result": 0.146},
      {"measurement": "glycan array binding signal (z-score)", "setting": "GlcA(b1-3)GlcNAc", "result": 0.222},
      {"measurement": "glycan array binding signal (z-score)", "setting": "GlcA(b1-6)Gal", "result": -0.13},
      {"measurement": "glycan array binding signal (z-score)", "setting": "[3]", "result": -0.147},
      {"measurement": "glycan array binding signal (z-score)", "setting": "[4]", "result": -0.191},
      {"measurement": "glycan array binding signal (z-score)", "setting": "[5]", "result": -0.212},
      {"measurement": "glycan array binding signal (z-score)", "setting": "[6]", "result": -0.058},
      {"measurement": "glycan array binding signal (z-score)", "setting": "GlcNAc(b1-3)Gal", "result": -0.205},
      {"measurement": "glycan array binding signal (z-score)", "setting": "[7]", "result": -0.175},
      {"measurement": "glycan array binding signal (z-score)", "setting": "GlcNAc(b1-3)Gal(b1-4)Glc", "result": -0.105},
      {"measurement": "glycan array binding signal (z-score)", "setting": "[8]", "result": -0.216},
      {"measurement": "glycan array binding signal (z-score)", "setting": "[9]", "result": -0.218},
      {"measurement": "glycan array binding signal (z-score)", "setting": "GlcNAc(b1-3)GalNAc", "result": -0.21},
      {"measurement": "glycan array binding signal (z-score)", "setting": "GlcNAc(b1-3)Man", "result": -0.093},
      {"measurement": "glycan array binding signal (z-score)", "setting": "[10]", "result": -0.201},
      {"measurement": "glycan array binding signal (z-score)", "setting": "[11]", "result": -0.211}
    ]}
  ]
}
